{"source": "PubChem BioAssay AID1346428", "about": "(National Center for Advancing Translational Sciences (NCATS), 2018)", "note": "The whole screen tested about 48,000 compounds, of which about 1,200 (2.5%) were called active. The shares of active, inactive and inconclusive entries below differ from those in the screen.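 The calls were made as follows: active = activation of at least 60% and not above a set upper limit (about 1 call in 100 departs from these limits); inconclusive = activation of 40% to 60%, or above that upper limit; inactive = activation under 40%.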", "data": [{"biological_target": "Probable G-protein coupled receptor 32 (Homo sapiens) (UniProt O75388)", "sequence (O75388 whole entry, looked up)": "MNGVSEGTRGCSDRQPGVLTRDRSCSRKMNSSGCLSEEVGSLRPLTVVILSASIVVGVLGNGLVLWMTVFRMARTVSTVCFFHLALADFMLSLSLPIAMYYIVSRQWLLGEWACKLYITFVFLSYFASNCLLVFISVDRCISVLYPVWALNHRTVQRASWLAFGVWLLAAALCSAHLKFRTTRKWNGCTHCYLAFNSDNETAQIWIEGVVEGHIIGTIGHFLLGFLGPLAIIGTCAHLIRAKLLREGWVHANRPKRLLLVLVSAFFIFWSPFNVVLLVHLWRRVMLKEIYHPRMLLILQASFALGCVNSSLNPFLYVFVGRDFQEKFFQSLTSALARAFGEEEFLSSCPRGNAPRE", "assay": "qHTS for Agonists of Human Resolvin D1 Receptor DRV1; also: 0% is about no effect", "conditions": "CHO-K1 GPR32 beta-arrestin PathHunter luminescence, 90 min; at 76.9 µM; active compounds read high; zero percent set by DMSO-only wells", "in_short": "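CHO-K1 cells stably expressing ProLink-tagged GPR32 and Enzyme Activator-tagged beta-arrestin were seeded at 2,500 cells/well overnight, exposed to compounds for 90 min at 37 °C, then read by beta-Gal complementation chemiluminescence after 1 h detection reagent.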", "values": [{"molecule": "CCn1c(=O)cc(OCC(=O)N2CCN(c3ccc(OC)cc3)CC2)c2ccccc21", "activation": "active: 80.8%"}, {"molecule": "O=C(Nc1cccc(O)c1)c1noc2c1CCc1ccccc1-2", "activation": "inconclusive: 221%"}, {"molecule": "CCOc1ccccc1NC(=O)c1c(NCc2cccs2)sc2c1CCC(C)C2", "note": "(stereo unspecified)", "activation": "inconclusive: 50%"}, {"molecule": "CCc1ccc(NC(=O)CN2C(=O)c3cccc4cccc2c34)cc1", "activation": "active: 120%"}, {"molecule": "Cc1ccc(CCNC(=O)c2ccc3nc(N4CCC(C)CC4)sc3c2)cc1", "activation": "inactive: -8.97%"}, {"molecule": "COc1ccc(N(CC(C)C)S(=O)(=O)c2nnc(NC(=O)c3ccco3)s2)cc1", "activation": "inactive: 28.5%"}, {"molecule": "O=C(OCC(O)CO)c1ccccc1Nc1ccnc2c(C(F)(F)F)cccc12", "note": "(stereo unspecified)", "activation": "inconclusive: 50.1%"}, {"molecule": "CCc1ccc(-c2nc(CS(=O)CC(=O)NCc3ccc(F)cc3)c(C)o2)cc1", "note": "(stereo unspecified)", "activation": "inactive: -14.7%"}, {"molecule": "COc1ccccc1CC(=O)Nc1ccc2nc(Nc3cccc(C(F)(F)F)c3)cc(C)c2c1", "activation": "inconclusive: 51.6%"}, {"molecule": "O=C(Nc1ccc(Cl)cc1)C1CCC(CNS(=O)(=O)c2ccc(Br)s2)CC1", "note": "(stereo unspecified)", "activation": "inconclusive: 57.7%"}, {"molecule": "COc1ccc(-c2cc(C(F)(F)F)nc(SCCC(=O)Nc3ccc(NC(C)=O)cc3)n2)cc1", "activation": "inconclusive: 141%"}, {"molecule": "CSc1ccc(CNC(=O)Cn2nc(N3CCN(c4ccccc4)CC3)ccc2=O)cc1", "activation": "active: 94.5%"}, {"molecule": "COc1cc(CNCCSc2nnnn2C)ccc1OCc1ccc(Cl)cc1Cl", "activation": "active: 60%"}, {"molecule": "CC(=O)OC[C@H]1O[C@@H](OC(C)=O)[C@H](OC(C)=O)[C@@H]1OC(C)=O", "activation": "inactive: 40.8%"}, {"molecule": "O=C(Cn1c(=O)nc(-c2ccccc2F)c2cc(Cl)ccc21)NCCCc1ccccc1", "activation": "inconclusive: 157%"}, {"molecule": "Cc1ccc(SCC(=O)Nc2ccc3oc(-c4cccc(Cl)c4)nc3c2)cc1", "activation": "inconclusive: 127%"}, {"molecule": "COc1ccc(Nc2c3c(nc4nncn24)CCC3)cc1OC", "activation": "active: 93.3%"}, {"molecule": "CN(C)c1ccc(C(CNS(=O)(=O)c2ccc(F)cc2)N2CCOCC2)cc1", "note": "(stereo unspecified)", "activation": "inactive: -16.3%"}, {"molecule": "COC(=O)c1ccc(Cl)cc1NC(=O)N(Cc1ccc(OC)cc1)C1CCN(C(C)=O)CC1", "activation": "inconclusive: 50.4%"}, {"molecule": "COc1cc(Cl)c(C)cc1NC(=O)Cn1c(C)c2cnn(-c3ccccc3)c(=O)c2c1C", "activation": "inconclusive: 58.1%"}, {"molecule": "O=C(Nc1cccc(C(F)(F)F)c1)C1CCN(S(=O)(=O)c2cccs2)CC1", "activation": "inconclusive: 153%"}, {"molecule": "CC(=O)c1cccc(NC(=O)C2CCN(S(=O)(=O)c3ccccc3)CC2)c1", "activation": "inconclusive: 135%"}, {"molecule": "COc1cccc(CN2CCc3nc(SCC(=O)Nc4ccccc4)[nH]c(=O)c3C2)c1", "activation": "inconclusive: 50.6%"}, {"molecule": "COc1ccc(-c2ccc3c(N)c(C(=O)Nc4cc(F)ccc4C)sc3n2)cc1", "activation": "inactive: -4.42%"}, {"molecule": "COc1cccc(-c2cc(C(=O)Nc3ccc(C)cc3)[nH]n2)c1", "activation": "active: 64.6%"}, {"molecule": "CC(C)c1ccc(C2N=C(N)Nc3nc4ccccc4n32)cc1", "note": "(stereo unspecified)", "activation": "inconclusive: 50.3%"}, {"molecule": "CC(CC(=O)Nc1ccc(Br)cc1F)S(=O)(=O)c1ccc2c(c1)NC(=O)CO2", "note": "(stereo unspecified)", "activation": "inconclusive: 196%"}, {"molecule": "Cc1cc(C)cc(NC(=O)Cn2c(=O)c3ccccc3n3nncc23)c1", "activation": "inconclusive: 57.3%"}, {"molecule": "Cc1ccc(N2C(=O)c3[nH]nc(-c4ccc(Cl)cc4)c3C2c2ccc(F)cc2)cc1", "note": "(stereo unspecified)", "activation": "inconclusive: 57.3%"}, {"molecule": "Cc1ccc(N(CC(=O)Nc2cc(C)cc(C)c2)S(=O)(=O)c2cccc3nonc23)cc1", "activation": "inactive: -3.71%"}, {"molecule": "NS(=O)(=O)c1ccc(NC(=O)c2ccc3c(c2)CCN3S(=O)(=O)c2ccccc2)cc1", "activation": "inactive: 33%"}, {"molecule": "CCOc1ccc(N(CC)S(=O)(=O)N2CCCC(C(=O)NCc3ccccc3Cl)C2)cc1", "note": "(stereo unspecified)", "activation": "inactive: -22.5%"}, {"molecule": "COc1cc(C2N=C(N)Nc3nc4ccccc4n32)ccc1OCCC(C)C", "note": "(stereo unspecified)", "activation": "inactive: 34.2%"}, {"molecule": "O=C(COC(=O)CCCC1=NS(=O)(=O)c2ccccc2N1)Nc1ccc(Br)cc1", "activation": "inconclusive: 51.3%"}, {"molecule": "Cc1ccccc1OCc1nnc(SCc2cc(=O)c3ccccc3[nH]2)n1C", "activation": "inconclusive: 59.3%"}, {"molecule": "COc1ccc2c(c1)CCc1c(C(=O)Nc3cc(C)ccc3O)noc1-2", "activation": "inconclusive: 178%"}, {"molecule": "Cc1cccc(NC(=O)CSc2nc3ccc(NC(=O)c4ccco4)cc3s2)c1", "activation": "inconclusive: 132%"}, {"molecule": "CCOc1ccc(NC(=O)Cn2c(=O)oc3cc(S(=O)(=O)N4CCCCCC4)ccc32)cc1", "activation": "inconclusive: 50.9%"}, {"molecule": "Clc1cccc(-n2ncc3c(NCCCn4ccnc4)ncnc32)c1", "activation": "inconclusive: 197%"}, {"molecule": "O=C(Cn1c(=O)oc2cc(S(=O)(=O)N3CCCCC3)ccc21)NCc1ccc(Cl)cc1", "activation": "inconclusive: 177%"}, {"molecule": "COc1ccccc1Nc1nn2c(=O)c3ccc(C(=O)NCCC4=CCCCC4)cc3nc2s1", "activation": "inactive: 29.9%"}, {"molecule": "COc1ccc(Nc2ncnc3c2cnn3-c2ccc(C)cc2)cc1Cl", "activation": "inconclusive: 50.6%"}, {"molecule": "Cc1ccc(NS(=O)(=O)c2ccc3[nH]c4c(c3c2)CCCC4)cc1N(C)C", "activation": "active: 91.7%"}, {"molecule": "Cc1c(C(=O)Nc2ccc(-n3c(C)nc4ccccc4c3=O)cc2)cccc1[N+](=O)[O-]", "activation": "inconclusive: 139%"}, {"molecule": "Cc1ccc(Cl)cc1NC(=O)Cn1c(=O)oc2cc(S(=O)(=O)N3CCCC3)ccc21", "activation": "inconclusive: 54.4%"}, {"molecule": "COc1cc(NS(=O)(=O)c2ccc(-c3cc(C)no3)cc2)cc(OC)c1", "activation": "inactive: 8.94%"}, {"molecule": "O=C(CN1CCN(Cc2ccccc2Cl)C1=O)NCCc1ccc(Cl)cc1", "activation": "active: 71.1%"}, {"molecule": "O=C(Cc1ccc(Cl)cc1)Nc1ccc2oc(-c3ccccc3F)nc2c1", "activation": "inconclusive: 137%"}, {"molecule": "COc1ccccc1-c1nc(SCC(=O)c2ccc(Cl)cc2)n[nH]1", "activation": "inconclusive: 144%"}, {"molecule": "O=C(CSc1nc2c(cnn2-c2ccc(F)cc2)c(=O)[nH]1)Nc1ccccc1C(F)(F)F", "activation": "inconclusive: 174%"}, {"molecule": "COc1ccc(CNC(=O)c2cn(-c3cccc(OC)c3)c(=O)c3ccccc23)cc1", "activation": "inactive: -18.8%"}, {"molecule": "COc1ccccc1-c1nc(SCC(=O)Nc2ccc(C)c(C)c2)n[nH]1", "activation": "inconclusive: 130%"}, {"molecule": "CCc1ccccc1Nc1cc(C(=O)NCCCN(C)C2CCCCC2)c2ccccc2n1", "activation": "active: 78.5%"}, {"molecule": "O=C(COc1ccccc1)Nc1nnc(SCc2cc(=O)c3ccccc3[nH]2)s1", "activation": "inconclusive: 169%"}, {"molecule": "CO[C@@H]1[C@@H](OC)[C@H](C)[C@@](O)(CC(=O)O)O[C@H]1[C@H](C)[C@H]1O[C@@]2(CC[C@@](C)([C@H]3CC[C@@](C)([C@@H]4O[C@@H]([C@H]5O[C@](C)(O)[C@H](C)C[C@@H]5C)C[C@@H]4OC4C[C@H](OC)[C@@H](OC)[C@H](C)O4)O3)O2)C[C@H](O)[C@H]1C", "note": "(stereo partly specified)", "activation": "inconclusive: 161%"}, {"molecule": "CSc1nn(Cc2ccc(F)cc2)c(N)c1S(=O)(=O)c1ccc(Cl)cc1", "activation": "inconclusive: 122%"}, {"molecule": "O=C1COc2ccc(-c3cc(-c4ccc(F)cc4)c4c(n3)-c3ccccc3OC4)cc2N1", "activation": "inactive: 2.61%"}, {"molecule": "O=C(Cc1ccc(Cl)cc1)NCC(c1cccs1)S(=O)(=O)c1ccc(F)cc1", "note": "(stereo unspecified)", "activation": "inconclusive: 58.4%"}, {"molecule": "Cn1c(SCC(=O)c2ccc(F)cc2)nnc1-c1ccccc1Br", "activation": "inconclusive: 228%"}, {"molecule": "Cc1ccc(S(=O)(=O)Nc2nc3n(n2)C(c2ccccc2Cl)C=C(c2ccccc2)N3)cc1", "note": "(stereo unspecified)", "activation": "inconclusive: 196%"}, {"molecule": "CC(C)(C)OC(=O)N1CCC(c2c(C(=O)Nc3ccc4c(c3)OCCO4)cnn2-c2ccccc2)CC1", "activation": "inactive: -21.6%"}, {"molecule": "CCOC(=O)c1oc2c(c1C)-c1nn(Cc3ccccc3Cl)cc1CC2", "activation": "inactive: -28.7%"}, {"molecule": "CCc1ccccc1NC(=O)c1nnn(Cc2ccc(Cl)cc2)c1N", "activation": "inconclusive: 51.5%"}, {"molecule": "Cc1c(-c2cccc(NC(=O)Nc3ccc(Cl)cc3)c2)nc2ncccn12", "activation": "inconclusive: 57.2%"}, {"molecule": "Cc1ccc(-c2nc(CNC(=O)Nc3ccccc3)c(C)o2)cc1", "activation": "inconclusive: 170%"}, {"molecule": "O=C(O)c1c(O)c(-c2ccccc2)nc2ccccc12", "activation": "inconclusive: 54.9%"}, {"molecule": "COc1ccc(-n2c(SCC(=O)N3CCc4ccccc43)nc3c([nH]c4ccccc43)c2=O)cc1", "activation": "active: 110%"}, {"molecule": "O=C(CSc1nnc(-c2ccccc2F)o1)Nc1cccc(C(F)(F)F)c1", "activation": "inconclusive: 58.8%"}, {"molecule": "COc1ccc(-n2nc(CCC(=O)N(C)O)cc2-c2ccc(Cl)cc2)cc1", "activation": "inconclusive: 192%"}, {"molecule": "COc1ccccc1OCC(=O)NC1CC(=O)N(c2ccc3c(c2)OCCO3)C1", "note": "(stereo unspecified)", "activation": "inactive: -4.47%"}, {"molecule": "Cc1cccc(NC(=O)Cn2nc3c4ccccc4n(Cc4ccccc4)cc-3c2=O)c1", "activation": "inconclusive: 121%"}, {"molecule": "NS(=O)(=O)c1ccc(CCNc2ncnc3c2cnn3-c2cccc(Cl)c2)cc1", "activation": "inconclusive: 323%"}, {"molecule": "O=C(CCS(=O)(=O)c1ccc(Br)s1)Nc1cc(C(F)(F)F)cc(C(F)(F)F)c1", "activation": "inconclusive: 133%"}, {"molecule": "COc1ccc(-c2nc(CSCC(=O)N3CCN(c4ccccc4F)CC3)c(C)o2)cc1", "activation": "inactive: 14%"}, {"molecule": "Cc1ccc(-n2ncc3c(NCCc4ccc(S(N)(=O)=O)cc4)ncnc32)cc1", "activation": "inconclusive: 169%"}, {"molecule": "CCc1ccc(C(=O)CC2(O)C(=O)N(Cc3ccc(C)cc3)c3ccccc32)cc1", "note": "(stereo unspecified)", "activation": "inactive: -65%"}, {"molecule": "CN(C)CCCn1c(-c2ccc(Cl)cc2)csc1=Nc1ccccc1", "activation": "inconclusive: 127%"}, {"molecule": "Cc1nn(Cc2ccc(F)cc2)c(C)c1NC(=O)c1noc2c1CCc1ccccc1-2", "activation": "inconclusive: 126%"}, {"molecule": "COc1ccc(C)cc1NC(=O)Cn1c(=O)oc2cc(S(=O)(=O)N3CCCCC3)ccc21", "activation": "active: 84%"}, {"molecule": "O=C1/C(=C/c2ccsc2)CC/C1=C\\c1cccs1", "activation": "inactive: -6.65%"}, {"molecule": "CCN(CC)c1ccc(NC(=O)c2sc3ccccc3c2Cl)cc1", "activation": "inactive: -17.3%"}]}]}
